Assay results as given in the supplement of paper PMC11417369.
± gives the standard deviation of the averaged measurements. This is one part of the list.

Test system: PfAP2-LT AP2 domain (GST-tagged)
Experiment: gcPBM binding intensity (ln(normalized median fluorescence intensity)); higher = stronger DNA binding
Outline: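 An Agilent 4 × 180k array carrying primer-extended double-stranded 36-bp intergenic genomic probes and negative controls received GST-tagged P. falciparum DNA-binding domains expressed in E. coli, about 25 μg on average, for 1 h. The binding buffer contained 1× PBS, 1% milk, 0.2 mg/ml BSA, 0.5% salmon testes DNA and 0.03% Triton X-100. Binding intensity is the top Masliner-normalised natural-log median intensity across replicate spots of either probe orientation, read after Alexa488 anti-GST antibody staining and a 488 nm scan.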

Sequence | gcPBM binding intensity (ln)
TACTTAATTATAAGGACATGCACAAAAGGAATTATT [TGCATGCA_site468] | 8.81 ± 0.45
ATTATATTTCAATTATGTACATATAAAATGAATAAA [XGTACX_site4204] | 8.45 ± 0.38
TTTTTTTTTTTTTTTTTTTTCTTCATTTAATTTATA [GTGCAC_negctrl_site17] | 8.36 ± 0.41
AATTTTCATTTTAGAAGTACACACAAAAAATAAAAT [XGTACX_site4426] | 8.75 ± 0.42
AAATAAAATACAATATGATAAAATGTTATCATATAT [CACACA_negctrl_site538] | 8.78 ± 0.45
ATAAATAATATAAATACACACTAAAAAAGATATATA [CACACA_site6397] | 8.97 ± 0.38
AATAAAAGGAATAATTGTACATAATGATTATACGTT [XGTACX_site7548] | 8.84 ± 0.38
TTATTTTAATTTTTGGTGCATATTCAAGTGTACCTT [GTGCAC_site9791] | 8.71 ± 0.46
TAATGTACTTAAACCGCACACATATAAAAAAATAAA [CACACA_site8926] | 9.04 ± 0.38
TTTTGTAAAATTAATTTATTATACATATATATTTCT [GTGCAC_negctrl_site728] | 8.56 ± 0.53
TATTTACATATTTATATACACACTTTTGCGTGTCTG [CACACA_site1110] | 9.36 ± 0.67
AATACTCCATTGTATAGTACATATATTTTTATTTAT [XGTACX_site3641] | 8.78 ± 0.41
AATAAAAAAAAAAATAATATATATGTATAAATATAT [CACACA_negctrl_site1561] | 8.54 ± 0.47
AGAATTTATAAAAACTGTACATATTTTCCAGTTATA [XGTACX_site2848] | 8.54 ± 0.45
TATTTTTATTTATATACACACTTACATATTTATATT [CACACA_site7666] | 8.97 ± 0.44
GTTGTAAAAAGAAAATGTACGTAATAAATATATATA [XGTACX_site3081] | 8.9 ± 0.45
GTATATTATTTACGTTTGCACTTCATTTTATAGTAA | 9.11 ± 0.38
TTCTTCAAAAAAAATTGTACACATCTCTCAAATGTT [XGTACX_site2952] | 8.61 ± 0.48
AATGGATGAATGAATGTATGAATGAATGTATGAATG [CACACA_negctrl_site91] | 8.96 ± 0.42
TATTAATTGTGGCACCTTGTATGTTTACAATGACAT [CACACA_negctrl_site1383] | 9.04 ± 0.46
AAAAAAAAAAAAAAGAGTACACAGACGTTCAAAGGT [XGTACX_site7566] | 9.11 ± 0.49
TGTATGTATTAATGCGCACACAAAAAATAACAATAT [CACACA_site1848] | 9.48 ± 0.42

Sequence | gcPBM binding intensity (ln)
TATTGATTTAGAAACACACACTCGAAGATGTTTAAC [CACACA_site1129] | 8.82 ± 0.38
ATATAGATATATAGTAGTACTTGTTATATAAGATAA [XGTACX_site6336] | 8.74 ± 0.36
ACAGAGCTTTAAATACGTACATAATATATATTAAAT [XGTACX_site8221] | 8.77 ± 0.43
ATAAAAAAAAAATAATGTACTTATATATATATATAT [XGTACX_site8282] | 9.06 ± 0.085
ATATATATATATAAATGTACATTGTGTGTTGTAAGA [XGTACX_site2434] | 9.25 ± 0.27
TTAAAAATGTTGGAAAGTACATATTTTTTAAAAGTA [XGTACX_site802] | 8.41 ± 0.35
CGCCTATAAGCTTAGACACACAAATAAATAAATATA [CACACA_site1264] | 8.65 ± 0.52
TATTGGGGGTATAAACACAGTAAGTAAATAAATAAA [CACACA_negctrl_site1680] | 8.69 ± 0.52
TACCTAATTCGGTCCCGTACAAGTTAGTTTCAATTC [XGTACX_site2703] | 8.7 ± 0.42
TATAGATACATATACACACACACACCCACATATATA [CACACA_site3436] | 9.94 ± 0.11
ATGTATGTGTAACATAGTACTTTTTAAAAGGATATT [XGTACX_site5328] | 8.92 ± 0.48
TATTTTTTATAATAATGTACATATATATATATAATA [XGTACX_site2329] | 8.47 ± 0.42
AATATCATATAAAAATGTACAAATTCTAAAACACGA [XGTACX_site1442] | 8.95 ± 0.46
GTATTCATGCTAAAGGTGCAATAATTTTTATAATAA [GTGCAC_site9603] | 8.54 ± 0.49
AAGATAAAATTATGTAGTACAAAAAAAAATAAAAAA [XGTACX_site139] | 8.71 ± 0.57
ATCAAACCTTTTAAATGTACATTCGGAGTAAAAAAA [XGTACX_site282] | 8.65 ± 0.39
TGATTTCCAGGTTATTGTACAAAATTAATTTTCGAA [XGTACX_site2491] | 8.39 ± 0.47
AAAAGTTTTATTTAAATGAATTAATCTTTACTATAT [CACACA_negctrl_site282] | 8.32 ± 0.53
CAATTTATAAAGAAAACACACATATACATATATACA [CACACA_site1260] | 8.93 ± 0.49
TATTAAACAAATTATGCAAAAATAAATCAATATGTT [CACACA_negctrl_site171] | 8.7 ± 0.41
ATTATTTTATAATTCACACATAAATAAAAAAAAAAT [CACACA_site5290] | 8.52 ± 0.38
TTAGGAAGCTCACAAAATAAAGTGAAAAGAAGAAAA [XGTACX_negctrl_site572] | 8.63 ± 0.63
